Assay results as given in article PMC4336329 (PLoS ONE, 2015).
The campaign covered roughly 310,000 compounds. About 2,200 (0.71%) showed an effect of 50% or more. Effects have a minus sign here. The list shows a part of the results.

What follows are compounds tested against human ether-à-go-go-related gene (hERG) potassium channel (human, UniProt Q12809) (assay: primary screen, population patch clamp on CHO cells stably expressing hERG).
Chain of human ether-à-go-go-related gene (hERG) potassium channel (Q12809 whole entry, looked up): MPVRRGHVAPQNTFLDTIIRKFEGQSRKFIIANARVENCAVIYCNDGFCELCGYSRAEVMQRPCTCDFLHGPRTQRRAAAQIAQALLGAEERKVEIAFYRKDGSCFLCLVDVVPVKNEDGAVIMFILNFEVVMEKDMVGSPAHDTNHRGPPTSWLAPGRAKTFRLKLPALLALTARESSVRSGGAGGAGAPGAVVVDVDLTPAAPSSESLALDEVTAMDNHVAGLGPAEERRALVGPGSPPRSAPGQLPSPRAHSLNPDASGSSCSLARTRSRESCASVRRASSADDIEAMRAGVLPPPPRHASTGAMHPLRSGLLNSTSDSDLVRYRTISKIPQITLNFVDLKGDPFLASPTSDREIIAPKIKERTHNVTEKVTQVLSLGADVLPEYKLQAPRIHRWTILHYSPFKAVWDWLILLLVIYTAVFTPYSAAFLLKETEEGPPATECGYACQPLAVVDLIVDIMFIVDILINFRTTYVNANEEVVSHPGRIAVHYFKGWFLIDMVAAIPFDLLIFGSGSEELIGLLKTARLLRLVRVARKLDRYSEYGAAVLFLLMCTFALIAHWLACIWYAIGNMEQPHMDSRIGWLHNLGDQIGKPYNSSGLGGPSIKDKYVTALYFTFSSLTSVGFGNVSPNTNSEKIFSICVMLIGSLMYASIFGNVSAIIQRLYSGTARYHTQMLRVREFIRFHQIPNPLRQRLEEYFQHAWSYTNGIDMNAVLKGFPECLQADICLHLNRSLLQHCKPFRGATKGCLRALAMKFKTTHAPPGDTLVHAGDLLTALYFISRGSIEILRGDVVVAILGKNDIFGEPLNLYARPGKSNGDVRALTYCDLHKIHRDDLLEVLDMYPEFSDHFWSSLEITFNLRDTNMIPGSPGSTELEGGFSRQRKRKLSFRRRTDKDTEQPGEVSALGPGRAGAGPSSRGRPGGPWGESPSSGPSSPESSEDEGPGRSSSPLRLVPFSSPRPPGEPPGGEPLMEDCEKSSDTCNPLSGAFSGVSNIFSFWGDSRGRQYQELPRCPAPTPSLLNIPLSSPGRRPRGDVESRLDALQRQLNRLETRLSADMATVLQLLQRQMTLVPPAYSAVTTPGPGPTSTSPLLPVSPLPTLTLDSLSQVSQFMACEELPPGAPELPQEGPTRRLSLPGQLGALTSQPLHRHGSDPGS

Point of comparison: O=C(O)CCCC(=O)Nc1ccn(-c2ccccc2)n1, “hERG current change (%, negative = inhibition) at 1uM” value -2.88%. Against it:
- COc1ccc(C2CC(=O)C=C(NCc3ccc4c(c3)OCO4)C2)cc1 (stereo not drawn) — lower, -32.6%
- O=C(Nc1ccccc1-c1ccccc1)c1cccs1 — higher, 9.1%
- Cc1ccc(C(=O)c2ccccc2C(=O)Nc2ccccc2)cc1 — higher, 12.6%
- O=C(CSc1nnc(COc2ccc(Br)cc2)o1)NC1CCCCC1 — higher, 10.8%
- COc1ccc(C(=S)N2CCOCC2)cc1OS(=O)(=O)c1ccc(Br)cc1 — lower, -16.3%
- O=C(CCS(=O)(=O)c1ccc(Br)cc1)N1CCN(c2ccccc2)CC1 — higher, 4.18%
- Cc1cccc(CCNS(=O)(=O)c2ccc(S(=O)(=O)NC3CCCC3)cc2)c1 — higher, 8.77%
- NS(=O)(=O)c1ccc(CNC(=O)c2cc(-c3cccs3)nc3ccccc23)cc1 — higher, 2.81%
- CN1CCN(C(=O)c2ccc(-c3ccccc3)cc2)CC1 — higher, 4.93%
- COc1c(Cl)cccc1-c1cn2ccccc2n1 — higher, 13.7%
- COc1ccc(Cl)cc1C(=O)NCC(C)C — higher, 10.2%
- COc1ccc(-n2nc3c(N4CCC(C(=O)NCCc5ccccc5C)CC4)nnc(C)c3c2C)cc1 — higher, 24.2%
- CC(=O)NC(Cc1ccc(F)cc1)C(=O)N1CCN(C(=O)NCc2ccccc2)CC1 (stereo not drawn) — higher, 1.78%
- CCN(CC)C(=O)Cn1cc(S(=O)(=O)Cc2cccc([N+](=O)[O-])c2)c2ccccc21 — lower, -22.1%
- CN(C)c1nc2ccccc2n(C)c1=O — higher, 14.2%
- COC(=O)c1ccc(COc2ccc(C=O)cc2OC)o1 — higher, 13.8%
- CCCOC(=O)/C(C(N)=NCc1ccccc1)=C(\O)OCCC — higher, 8.96%
- CC(C)(/C=N/O)/[N+]([O-])=C/c1ccccc1 — higher, 17.9%
- CC1=CC(=NOC(=O)/C=C/c2ccccc2)C=C(C)C1=O — higher, 14.7%
- COC(=O)Cn1ccc(-c2ccc(Cl)cc2)c(C#N)c1=O — higher, 4.67%
- COc1ccc(-c2sc(Nc3ccccc3)n[n+]2-c2ccc(F)cc2)cc1Br.[Cl-] — higher, 6.75%
- Cc1ccc(Cl)cc1N1CCN(CCN)CC1 — higher, 3.96%
- COC(=O)c1ccccc1N/C=C1\CCc2c(c(C)nn2-c2ccccn2)C1=O — higher, 11.1%
- O=C(NCC1CC1)c1ccc(Nc2nc3ccc(Br)cc3[nH]2)cc1 — higher, 6.24%
- CC(C)CN(C(=O)COC(=O)CCSc1ccc(F)cc1)c1c(N)n(Cc2ccccc2)c(=O)[nH]c1=O — higher, 3.01%
- CN(C)c1nc(N(C)C)nc(N2CCCCC2)n1 — higher, 11.4%
- CCOC(=O)c1oc2ccccc2c1NC(=O)c1ccco1 — higher, 4.43%
- O=C(CSc1nnc(CNc2cccc(Cl)c2)o1)OC1CCCCC1 — higher, 0.318%
- CCCCSC(=S)N(C)C1CCS(=O)(=O)C1 (stereo not drawn) — higher, 8.03%
- COc1ccc(S(=O)(=O)N2CCC(C(=O)Nc3ccc(S(=O)(=O)N4CCCC4)cc3)CC2)cc1OC — higher, 17.9%
- COc1cc(C(=O)NCC2CCCO2)ccc1OCc1ccccc1 (stereo not drawn) — higher, 9.88%
- CCOC(=O)c1c(NC(=O)C2CCCN(S(=O)(=O)c3ccccc3)C2)sc2c1CCCC2 (stereo not drawn) — higher, 6.71%
- CCOc1ccc(N(C(C)C(=O)Nc2ccc(OC)cc2)S(C)(=O)=O)cc1 (stereo not drawn) — higher, 5.59%
- CCOc1ccc(CCNC(=O)COC(=O)c2ccc(Cl)nc2)cc1OCC — higher, 16.7%
- O=C(NC1=NCCS1)c1sc2cc(Cl)cc(Cl)c2c1Cl — higher, 14.9%
- O=C1CCC(C(=O)N2CCSCC2)CN1CCc1cccc(F)c1 (stereo not drawn) — higher, 23.7%
- Cc1cc2c(cc1C)N(C(=O)CSC1=NCCS1)C(C)(C)c1ssc(=S)c1-2 — higher, 11.4%
- Cc1ccc(Cl)cc1NC(=O)NCCN1CCCCC1 — higher, 4.14%
- COc1ccc(C2SCC(=O)N2C)cc1 (stereo not drawn) — higher, 8.75%
- Cc1ccc(NC(=O)N2CCc3ccccc3C2)c(C)c1 — higher, 11.7%
- Cc1onc(-c2ccccc2)c1C(=O)Nc1cccc2nsnc12 — higher, 7.88%
- Cc1nccn1CCCNC(=O)CC1C(=O)NCCN1Cc1ccc(F)cc1Cl (stereo not drawn) — higher, 17.2%
- COc1ccccc1CCc1nnc(CCC(=O)NC(C)Cc2cccs2)o1 (stereo not drawn) — lower, -6.86%
- Cc1ccc(C(=O)NCCCNC(=O)c2ccccc2C)cn1 — higher, 8.13%
- Cc1ncsc1C(=O)N1N=C2/C(=C/c3ccccc3)CCCC2C1c1ccccc1 (stereo not drawn) — higher, 17.4%
- COC(=O)C1=C(c2ccc(OC)c(OC)c2)C[C@@H]2CC[C@H]1N2C(=O)NCCOc1ccc(OC)cc1 — higher, 8.75%
- COc1cccc(C2Nc3cc(Cl)c(S(N)(=O)=O)cc3S(=O)(=O)N2)c1 (stereo not drawn) — higher, 5.48%
- CCN(CCCC(=O)c1ccc(F)cc1)CCc1ccccc1.Cl — lower, -86.5%
- COC(=O)c1ccc(COc2ccccc2/C=C(\C#N)C(=O)Nc2ccc(C)cc2C)cc1 — lower, -10%
- S=c1[nH]nc(-c2cccs2)n1/N=C/c1cn(-c2ccccc2)nc1-c1cccs1 — higher, 17.4%
- CCC(=O)Nc1nc2ccccc2n1CCN(C)C — higher, 10.1%
- CCc1ccc(N(CC(=O)Nc2sc3c(c2C(=O)OC)CCCC3)S(C)(=O)=O)cc1 — higher, 11.1%
- Cc1cc(NC2C3CC4CC(C3)CC2C4)n2ncnc2n1 (stereo not drawn) — lower, -24.2%
- CCn1c(SCC(=O)NCCc2ccccc2)nnc1-c1cccs1 — higher, 5.16%
- COc1cc(/C=N/NC(=O)C2COc3ccccc3O2)ccc1O (stereo not drawn) — higher, 2.91%
- O=C(OCn1nnc2ccccc2c1=O)C12CC3CC(CC(O)(C3)C1)C2 — higher, 12.3%
- CN(C)S(=O)(=O)c1ccc(N2CCCC2)c(C(=O)Nc2ccccc2OC(F)F)c1 — higher, 5.43%
- O=C(NC1CCCCC1NC(=O)c1cccs1)c1cccs1 (stereo not drawn) — higher, 6.7%
- CCc1nn2c(N3CCOCC3)cc(C)nc2c1-c1ccc(F)cc1 — higher, 9.19%
- O=C(Nc1nnc(-c2ccco2)o1)c1ccc([N+](=O)[O-])s1 — higher, 9.06%
- COc1cccc(OC)c1C(=O)Nn1c(C2CCC2)nc2ccccc2c1=O — higher, 10.6%
- CN(C)c1ccc(NC(=O)c2cn(-c3ccccc3)nc2-c2cccs2)cc1 — higher, 10.8%
- Cc1ccccc1CN1CCN(S(=O)(=O)c2ccc(F)cc2)CC1 — higher, 9.67%
- COCc1cc(C)nc(Nc2ccccc2C)c1C#N — lower, -6.21%
- COc1ccc(/C=N/Nc2ncnc3c2[nH]c2ccc(C)cc23)c(OC)c1OC — higher, 8.4%
- O=C(Nc1cnccn1)c1cccc(C(F)(F)F)c1 — higher, 2.47%
- CCCCCCn1c(SCC(C)C)nc2c1c(=O)[nH]c(=O)n2C — higher, 10.1%
- O=C(CSc1ccc2c(c1)OCCO2)NC(=O)Cc1ccccc1 — higher, 12.9%
- CN(C)CCNC(=O)c1cc2c(s1)-c1ccccc1OC2 — lower, -18.8%
- Cc1cc(SCCC(=O)O)nc2ccccc12 — higher, 22.5%
- O=C(Nc1ccc(F)cc1)Nc1ccc2ccccc2n1 — higher, 10.5%
- O=C(O)c1ccc(CP(=O)(c2ccccc2)c2ccccc2)cc1 — higher, 14%
- CC(=O)Nc1ccc(S(=O)(=O)NC2(C(F)(F)F)NC(=O)N(C3CCCCC3)C2=O)cc1 (stereo not drawn) — higher, 9.82%
- COc1ccc(C(=O)Nc2ccc3c(c2)OCO3)cc1OC — higher, 3.07%
- COc1ccc(C2Nc3cc(OC)ccc3-n3cccc32)cc1 (stereo not drawn) — higher, 8.11%
- COc1ccc(C(CNC(=O)c2ccc(OC)c(S(=O)(=O)N3CCCC3)c2)N2CCCC2)cc1 (stereo not drawn) — higher, 13.6%
- COc1cc(OC)cc(C(=O)Nc2cccc3ccccc23)c1 — higher, 13.1%
- O=C(c1ccc(Br)s1)N1CCN(S(=O)(=O)c2ccccc2)CC1 — higher, 6.57%
- COc1ccc(CN2CCCC(CO)(Cc3ccc(F)cc3)C2)c(OC)c1OC (stereo not drawn) — lower, -49%
- O=C(Nc1ccc(F)c(F)c1)c1cc(S(=O)(=O)N2CCN(c3ccccn3)CC2)ccc1F — higher, 7.92%
- COc1ccc(S(=O)(=O)N2CCc3ccccc3C2)cc1OC — higher, 4%
- Cc1ccc(-c2nc3ncccn3c2Nc2ccccc2C)o1 — higher, 1.51%
- COc1ccccc1N1CCN(c2cc(=O)n(-c3ccccc3Cl)c(=O)[nH]2)CC1 — higher, 13.9%
- CCOc1ccc(NC(=O)C2=NN(c3ccccc3)C(=O)CC2)cc1S(=O)(=O)N1CCCCC1 — higher, 5.13%
- CCc1nc2ccccc2c(C(=O)OCCN2C(=O)c3ccccc3C2=O)c1C — higher, 12.4%
- CCOC(=O)c1c(NC(=O)CNCCOC)sc2c1CCCC2 — higher, 5.71%
- O=C(Nc1ccccc1O)c1c(O)c2c([nH]c1=O)CCCC2 — higher, 17.9%
- COc1cc(-n2cnnn2)ccc1S(=O)(=O)N1CCOCC1 — higher, 6.66%
- Cc1ccc(-c2cc(-c3ccccc3C)[nH]n2)c(O)c1 — higher, 4.55%
